Article PMC4336329 (PLoS ONE, 2015)
Hit rate of the full screen: of about 310,000 compounds, about 2,200 (0.71%) showed an effect of 50% or more. The effect is printed as a negative number. This is one part of the list.

target: human ether-à-go-go-related gene (hERG) potassium channel (human, UniProt Q12809); experiment: primary screen, population patch clamp on CHO cells stably expressing hERG
Sequence (Q12809 whole entry, looked up): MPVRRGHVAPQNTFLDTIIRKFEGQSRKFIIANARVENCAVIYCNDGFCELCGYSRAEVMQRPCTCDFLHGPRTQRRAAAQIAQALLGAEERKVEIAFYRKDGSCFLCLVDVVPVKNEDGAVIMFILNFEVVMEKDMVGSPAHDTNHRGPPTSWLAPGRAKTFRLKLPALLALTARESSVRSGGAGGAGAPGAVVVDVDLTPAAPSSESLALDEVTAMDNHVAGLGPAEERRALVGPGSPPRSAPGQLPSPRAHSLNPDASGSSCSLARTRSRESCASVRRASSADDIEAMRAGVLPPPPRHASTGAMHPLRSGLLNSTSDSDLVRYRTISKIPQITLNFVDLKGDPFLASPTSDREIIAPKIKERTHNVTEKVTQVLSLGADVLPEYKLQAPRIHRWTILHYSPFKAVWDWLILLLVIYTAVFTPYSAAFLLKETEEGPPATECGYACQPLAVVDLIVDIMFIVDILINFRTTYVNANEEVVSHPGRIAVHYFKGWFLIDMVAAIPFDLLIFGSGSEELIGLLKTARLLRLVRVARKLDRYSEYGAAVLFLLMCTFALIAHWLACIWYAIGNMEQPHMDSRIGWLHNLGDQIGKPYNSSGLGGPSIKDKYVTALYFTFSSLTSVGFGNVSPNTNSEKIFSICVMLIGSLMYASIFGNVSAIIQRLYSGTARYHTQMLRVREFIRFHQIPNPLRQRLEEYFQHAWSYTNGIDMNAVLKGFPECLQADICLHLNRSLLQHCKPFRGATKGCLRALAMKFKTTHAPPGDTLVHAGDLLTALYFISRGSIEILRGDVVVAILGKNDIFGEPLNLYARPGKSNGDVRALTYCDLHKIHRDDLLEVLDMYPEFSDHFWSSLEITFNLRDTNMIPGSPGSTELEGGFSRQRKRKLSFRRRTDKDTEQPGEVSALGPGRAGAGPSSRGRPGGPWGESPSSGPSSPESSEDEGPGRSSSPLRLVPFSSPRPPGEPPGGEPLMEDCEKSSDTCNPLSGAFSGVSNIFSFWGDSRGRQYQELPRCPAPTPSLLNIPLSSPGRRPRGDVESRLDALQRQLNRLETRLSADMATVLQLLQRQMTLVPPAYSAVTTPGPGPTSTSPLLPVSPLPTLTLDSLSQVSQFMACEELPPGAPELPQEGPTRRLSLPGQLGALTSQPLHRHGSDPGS

| SMILES | hERG current change (%, negative = inhibition) at 1uM [%] |
| --- | --- |
| COc1ccc(-c2cc(C(F)(F)F)nc(N3CCOCC3)n2)cc1OC | 9.61 |
| CCN1CCN(Cc2ccc(NC(=O)Nc3ccc(OC)cc3)cc2)CC1 | 0.627 |
| O=C(O)CC/C(=N\NC(=O)c1ccccc1)c1cccs1 | 6.25 |
| O=C(Nc1cc(C(F)(F)F)ccc1N1CCOCC1)c1cncc(Br)c1 | -10.2 |
| CCOc1ccccc1N1CCN(C(=O)C(Sc2ccccc2)c2ccccc2)CC1 (stereo not drawn) | 11.5 |
| Cc1cc(NC(=O)CCC(=O)N(CC(=O)NCC2CCCO2)c2ccc(C)c(C)c2)no1 (stereo not drawn) | 8.07 |
| CCC(Sc1nc2cc(OC)c(OC)cc2c(=O)n1Cc1ccco1)C(=O)NCCOC (stereo not drawn) | -4.36 |
| O=C(Nc1ccc(Cl)cc1)N1CCSc2ccccc21 | -0.071 |
| COc1ccc(-n2c(CCc3ccccc3)nnc2SCC(=O)c2ccccc2)cc1 | 1.06 |
| COc1ccc(CC(=O)Nc2ccc(-c3noc(-c4cc(OC)c(OC)c(OC)c4)n3)cc2)cc1 | 3.62 |
| Cc1cc(C)[n+](-c2ccc(F)cc2)c2[nH]c(=O)[nH]c(=O)c12.[I-] | 5.63 |
| COc1cccc(/C=N/NC(=O)C(=O)NCc2cccnc2)c1OC | 14.3 |
| O=C(OCc1ccccc1)c1cc(S(=O)(=O)N2CCCCC2)ccc1N1CCOCC1 | -3.08 |
| CS(=O)(=O)Nc1ccc(C2=NN(C(=O)c3ccco3)C(c3ccc(F)cc3)C2)cc1 (stereo not drawn) | -44.7 |
| CC(=O)Nc1ccc(NC(=O)c2c(C)nn(Cc3ccccc3Cl)c2C)cc1 | -0.476 |
| COc1ccc(Cc2nnc(SCC(=O)NC3CCCC3)o2)cc1 | 5.22 |
| O=C(Nc1nc2ccc([N+](=O)[O-])cc2s1)C1CCCO1 (stereo not drawn) | 4.84 |
| CC(C)(C)C1CCC(C(=O)OCC(=O)N2CCN(C(=O)c3ccco3)CC2)CC1 (stereo not drawn) | 3.14 |
| COc1ccc(OC)c(-n2c(-c3ccc(C)cc3)n[nH]c2=S)c1 | 0.571 |
| O=C(CSC1=Nc2ccccc2C2=NC(CC(=O)NCc3ccco3)C(=O)N12)NCC1CCCO1 (stereo not drawn) | 6.38 |
| CCOC(=O)c1c(N)sn(-c2ccccc2)c1=S | 7.27 |
| Cn1c(=O)c2sccc2n(Cc2ccccc2)c1=O | 5.69 |
| COc1ccc(Cl)c(N2CCN(CCCNC(=O)Nc3ccc(C)cc3)CC2)c1 | -24.5 |
| CC(=O)Nc1cc(-c2nc3ccccc3o2)ccc1Cl | 8.99 |
